# This is one part of the list.
# Legend:
# Test in all cases: glycan array binding signal (z-score within array); higher = stronger binding
# Conditions in all cases: glycan notation: IUPAC condensed, linker removed
# Gal(a1-4)Gal(b1-4)Glc = target: Gal(a1-4)Gal(b1-4)Glc
# Procedure, shortened: (§1)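 The Consortium for Functional Glycomics database supplied 3228 glycan arrays, of which those lacking an available protein sequence were dropped. The binding signal, a within-array Z-score, was averaged across arrays of the same protein sequence and across linkers. Negative scores can be read as non-binding.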
# Gal(a1-4)Gal(b1-4)GlcNAc = target: Gal(a1-4)Gal(b1-4)GlcNAc
# Procedure, shortened: as §1
# Gal(a1-4)GlcNAc = target: Gal(a1-4)GlcNAc
# Procedure, shortened: as §1
# Gal(a1-6)Glc = target: Gal(a1-6)Glc
# Procedure, shortened: as §1
# Gal(b1-2)Gal = target: Gal(b1-2)Gal
# Procedure, shortened: as §1
# Gal(b1-3)Gal = target: Gal(b1-3)Gal
# Procedure, shortened: as §1
# Gal(b1-3)GalNAc = target: Gal(b1-3)GalNAc
# Procedure, shortened: as §1
# [1] = target: Gal(b1-3)GalNAc(b1-3)Gal(a1-4)Gal(b1-4)Glc
# Procedure, shortened: as §1
# [2] = target: Gal(b1-3)GalNAc(b1-4)Gal(b1-4)Glc
# Procedure, shortened: as §1
# [3] = target: Gal(b1-3)GalNAc(b1-4)[Neu5Ac(a2-3)]Gal(b1-4)Glc
# Procedure, shortened: as §1
# Gal(b1-3)GlcNAc = target: Gal(b1-3)GlcNAc
# Procedure, shortened: as §1
# [4] = target: Gal(b1-3)GlcNAc(b1-3)Gal(b1-4)Glc
# Procedure, shortened: as §1
# [5] = target: Gal(b1-3)GlcNAc(b1-3)Gal(b1-4)GlcNAc
# Procedure, shortened: as §1
# [6] = target: Gal(b1-3)[Fuc(a1-4)]GlcNAc
# Procedure, shortened: as §1
# [7] = target: Gal(b1-3)[Fuc(a1-4)]GlcNAc(b1-3)Gal(b1-4)GlcNAc
# Procedure, shortened: as §1
# [8] = target: Gal(b1-3)[Fuc(a1-4)]GlcNAc(b1-3)Gal(b1-4)[Fuc(a1-3)]GlcNAc
# Procedure, shortened: as §1
# [9] = target: Gal(b1-3)[GlcNAc(b1-6)]GalNAc
# Procedure, shortened: as §1
# [10] = target: Gal(b1-3)[Neu5Ac(a2-6)]GalNAc
# Procedure, shortened: as §1
# [11] = target: Gal(b1-3)[Neu5Ac(a2-6)]GlcNAc(b1-6)Gal(b1-4)Glc
# Procedure, shortened: as §1
# [12] = target: Gal(b1-3)[Neu5Ac(b2-6)]GalNAc
# Procedure, shortened: as §1
# [13] = target: Gal(b1-4)GalNAc(a1-3)[Fuc(a1-2)]Gal(b1-4)GlcNAc
# Procedure, shortened: as §1
# [14] = target: Gal(b1-4)GalNAc(b1-3)[Fuc(a1-2)]Gal(b1-4)GlcNAc
# Procedure, shortened: as §1
# Gal(b1-4)Glc = target: Gal(b1-4)Glc
# Procedure, shortened: as §1
# Gal(b1-4)Glc6S = target: Gal(b1-4)Glc6S
# Procedure, shortened: as §1
# Gal(b1-4)GlcNAc = target: Gal(b1-4)GlcNAc
# Procedure, shortened: as §1
# [15] = target: Gal(b1-4)GlcNAc(b1-2)Man(a1-3)[Gal(b1-4)GlcNAc(b1-2)Man(a1-6)]Man(b1-4)GlcNAc(b1-4)GlcNAc
# Procedure, shortened: as §1
# [16] = target: Gal(b1-4)GlcNAc(b1-3)Gal(b1-4)Glc
# Procedure, shortened: as §1
# [17] = target: Gal(b1-4)GlcNAc(b1-3)Gal(b1-4)GlcNAc
# Procedure, shortened: as §1
# [18] = target: Gal(b1-4)GlcNAc(b1-3)Gal(b1-4)GlcNAc(b1-3)Gal(b1-4)GlcNAc
# Procedure, shortened: as §1
# [19] = target: Gal(b1-4)GlcNAc(b1-3)Gal(b1-4)[Fuc(a1-3)]GlcNAc(b1-3)Gal(b1-4)[Fuc(a1-3)]GlcNAc
# Procedure, shortened: as §1
# [20] = target: Gal(b1-4)GlcNAc(b1-3)GalNAc
# Procedure, shortened: as §1
# [21] = target: Gal(b1-4)GlcNAc(b1-3)[Gal(b1-4)GlcNAc(b1-6)]GalNAc
# Procedure, shortened: as §1
# [22] = target: Gal(b1-4)GlcNAc(b1-6)Gal(b1-4)GlcNAc(b1-6)GalNAc
# Procedure, shortened: as §1
# [23] = target: Gal(b1-4)GlcNAc(b1-6)GalNAc
# Procedure, shortened: as §1
# [24] = target: Gal(b1-4)GlcNAc(b1-6)[Gal(b1-3)]GalNAc
# Procedure, shortened: as §1
# Gal3S(b1-3)GalNAc = target: Gal3S(b1-3)GalNAc
# Procedure, shortened: as §1
# Gal3S(b1-3)GlcNAc = target: Gal3S(b1-3)GlcNAc
# Procedure, shortened: as §1
# [25] = target: Gal3S(b1-3)[Fuc(a1-4)]GlcNAc
# Procedure, shortened: as §1
# Gal3S(b1-4)Glc = target: Gal3S(b1-4)Glc
# Procedure, shortened: as §1
# Gal3S(b1-4)Glc6S = target: Gal3S(b1-4)Glc6S
# Procedure, shortened: as §1
# Gal3S(b1-4)GlcNAc = target: Gal3S(b1-4)GlcNAc
# Procedure, shortened: as §1
# Gal3S(b1-4)GlcNAc6S = target: Gal3S(b1-4)GlcNAc6S
# Procedure, shortened: as §1
# Gal3S6S(b1-4)GlcNAc = target: Gal3S6S(b1-4)GlcNAc
# Procedure, shortened: as §1
# Gal3S6S(b1-4)GlcNAc6S = target: Gal3S6S(b1-4)GlcNAc6S
# Procedure, shortened: as §1
# Gal4S(b1-4)GlcNAc = target: Gal4S(b1-4)GlcNAc
# Procedure, shortened: as §1
binder,measurement,setting,value
"F17dG (Escherichia coli), Q47199 (protein) MTNFYKVFLAVFILVCCNISQAAVSFIGSTENDVGPSPGSYSRTHAMDNLPFVYNTGNNIGYQNANVWRISKGFCVGLDGKVDLPVVGSLDGQSIYGLTEEVGLLIWMGDTNYSRGTAMSGNSWENVFSGWCVGANTASTQGLSVRVTPVILKRNSSARYSVQKTSIGSIRMRPYNGSSAGSVQTTVNFSLNPFTLNDTVTSCRLLTPSAVNVSLAAISAGQLPSSGDEVVAGTTSLKLQCDAGVTVWATLTDATTPSNRSDILTLTGASTATGVGLRIYKNTDSTPLKFGPDSPVKGNENQWQLSTGTETSPSVRLYVKYVNTGEGINPGTVNGISTFTFSYQ",glycan array binding signal (z-score),Gal(a1-4)Gal(b1-4)Glc,0.45
same,glycan array binding signal (z-score),Gal(a1-4)Gal(b1-4)GlcNAc,-0.362
same,glycan array binding signal (z-score),Gal(a1-4)GlcNAc,-0.162
same,glycan array binding signal (z-score),Gal(a1-6)Glc,-0.237
same,glycan array binding signal (z-score),Gal(b1-2)Gal,-0.316
same,glycan array binding signal (z-score),Gal(b1-3)Gal,-0.308
same,glycan array binding signal (z-score),Gal(b1-3)GalNAc,-0.155
same,glycan array binding signal (z-score),[1],-0.06
same,glycan array binding signal (z-score),[2],-0.17
same,glycan array binding signal (z-score),[3],-0.232
same,glycan array binding signal (z-score),Gal(b1-3)GlcNAc,-0.154
same,glycan array binding signal (z-score),[4],-0.334
same,glycan array binding signal (z-score),[5],-0.386
same,glycan array binding signal (z-score),[6],-0.225
same,glycan array binding signal (z-score),[7],-0.355
same,glycan array binding signal (z-score),[8],-0.374
same,glycan array binding signal (z-score),[9],0.643
same,glycan array binding signal (z-score),[10],-0.194
same,glycan array binding signal (z-score),[11],-0.262
same,glycan array binding signal (z-score),[12],-0.256
same,glycan array binding signal (z-score),[13],-0.326
same,glycan array binding signal (z-score),[14],0.215
same,glycan array binding signal (z-score),Gal(b1-4)Glc,-0.307
same,glycan array binding signal (z-score),Gal(b1-4)Glc6S,-0.312
same,glycan array binding signal (z-score),Gal(b1-4)GlcNAc,-0.338
same,glycan array binding signal (z-score),[15],-0.364
same,glycan array binding signal (z-score),[16],-0.174
same,glycan array binding signal (z-score),[17],-0.287
same,glycan array binding signal (z-score),[18],0.028
same,glycan array binding signal (z-score),[19],-0.317
same,glycan array binding signal (z-score),[20],-0.291
same,glycan array binding signal (z-score),[21],-0.336
same,glycan array binding signal (z-score),[22],-0.329
same,glycan array binding signal (z-score),[23],-0.359
same,glycan array binding signal (z-score),[24],-0.253
same,glycan array binding signal (z-score),Gal3S(b1-3)GalNAc,-0.279
same,glycan array binding signal (z-score),Gal3S(b1-3)GlcNAc,-0.335
same,glycan array binding signal (z-score),[25],-0.308
same,glycan array binding signal (z-score),Gal3S(b1-4)Glc,-0.073
same,glycan array binding signal (z-score),Gal3S(b1-4)Glc6S,-0.278
same,glycan array binding signal (z-score),Gal3S(b1-4)GlcNAc,-0.33
same,glycan array binding signal (z-score),Gal3S(b1-4)GlcNAc6S,-0.11
same,glycan array binding signal (z-score),Gal3S6S(b1-4)GlcNAc,-0.258
same,glycan array binding signal (z-score),Gal3S6S(b1-4)GlcNAc6S,0.325
same,glycan array binding signal (z-score),Gal4S(b1-4)GlcNAc,-0.315
